Values marked as one replicate rest on one cluster of the flow cell; about a third of the high ones do not repeat.
Test system: ATP
Test: switch fluorescence ratio, 500 uM ATP over buffer (Cy3 cluster intensity, sum of 5 cycles each) (fold (ratio)); higher = stronger signal-on switching upon ATP binding; sequences stand for … in TCGTCGGCAGCGTCAGATGTGTATAAGAGACAGTTTTTTTTTTTTTTTTTTTTTTTTT…TC
Conditions: aptamer strand: ATP DNA aptamer (quencher-CACCTGGGGGAGTATTGCGGAGGAAGG + anchor), 100 nM annealed; ATP concentration: 500 uM; one replicate
How it was run: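 The fluorescence ratio divides summed target-cycle Cy3 intensity by summed buffer-cycle Cy3 intensity for each cluster and is averaged per switch-domain sequence. Cy3-labelled switching-strand clusters on a modified Illumina MiSeq flow-cell were annealed to 100 nM quencher-labelled ATP aptamer, then imaged in selection buffer and again after 15 min with 500 uM ATP at 22 °C. Five such cycles were run, with NaOH stripping and re-annealing between them, and clusters outside 100-1000 RFU were excluded.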
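Also: ATP exposure 15 min at 22 °C before imaging.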

GGATTTAGTC
switch fluorescence ratio: 0.963

TCAAGTTTAC
switch fluorescence ratio: 0.996

ACGTGAGGCG
switch fluorescence ratio: 1.02

GTGACCCCAT
switch fluorescence ratio: 1.07

TCTCGAAAAA
switch fluorescence ratio: 1.06

AAGGCCAAG
switch fluorescence ratio: 1.04

CTATAGGTGC
switch fluorescence ratio: 1.18

ATGGATTAAG
switch fluorescence ratio: 1.01

CAAACTAGCC
switch fluorescence ratio: 1.06

ATTTTAGCGG
switch fluorescence ratio: 0.999

AAGGTGGCT
switch fluorescence ratio: 1.05

ATGAAGAGA
switch fluorescence ratio: 1.03

GCTGTCTGCT
switch fluorescence ratio: 1

TTCAGATTCC
switch fluorescence ratio: 1.04

TCATGTATAG
switch fluorescence ratio: 0.995

CATGGGATAA
switch fluorescence ratio: 1.01

GATTCAAGTT
switch fluorescence ratio: 0.987

TAGGCCAGAC
switch fluorescence ratio: 1.1

AAGAGACTCA
switch fluorescence ratio: 1.05

CGAAACTAAA
switch fluorescence ratio: 0.965

GGGATACCC
switch fluorescence ratio: 0.969

GCTTTAGGCG
switch fluorescence ratio: 0.977

GGTTCGCCCG
switch fluorescence ratio: 1.03

ATCCATGGTC
switch fluorescence ratio: 1.03

TATCCCCTTG
switch fluorescence ratio: 1.03

TTTCCTAGA
switch fluorescence ratio: 0.994

CGGGCCTAAC
switch fluorescence ratio: 1.66

CCTCGAAGCG
switch fluorescence ratio: 1.15

GAGTAGTTGG
switch fluorescence ratio: 0.904

AGGATTGCTC
switch fluorescence ratio: 1

TGAGCTATGT
switch fluorescence ratio: 1.17

TGTGCACTAC
switch fluorescence ratio: 1.74

TGTAATCGCC
switch fluorescence ratio: 0.985

GGGTGTACCG
switch fluorescence ratio: 0.988

TCACTCGGAT
switch fluorescence ratio: 1.08

CCGTAAAAC
switch fluorescence ratio: 2.76

TATCCAGTTT
switch fluorescence ratio: 0.843

CCTAATTGGG
switch fluorescence ratio: 0.98

CTTTTAAGTC
switch fluorescence ratio: 1.01

GGTTAAAAAT
switch fluorescence ratio: 1.11

ACTCATTCCA
switch fluorescence ratio: 1.02

GGTAGTCGGT
switch fluorescence ratio: 0.982

TGATATACCG
switch fluorescence ratio: 1.05

CCGGGGAACT
switch fluorescence ratio: 1.1

ACAACTATCG
switch fluorescence ratio: 1.06

ACATGCGATA
switch fluorescence ratio: 1.06

ATGCTTGGGC
switch fluorescence ratio: 0.97

TGTGCAATAG
switch fluorescence ratio: 4.16

ACACGATTAG
switch fluorescence ratio: 0.988

AGCTTAACGG
switch fluorescence ratio: 1.02

GAATTCCGCA
switch fluorescence ratio: 2.15

GTCGACGAGC
switch fluorescence ratio: 1.07

ATTAGACAAC
switch fluorescence ratio: 1.04

GTGTCCCGCG
switch fluorescence ratio: 1.03

CGGGTTCTGT
switch fluorescence ratio: 0.999

AAGCAGGCTA
switch fluorescence ratio: 1.06

GATTTGCCTT
switch fluorescence ratio: 0.98

AATAAAACA
switch fluorescence ratio: 0.969

TCGCGTTTCG
switch fluorescence ratio: 0.973

GTTGTTATG
switch fluorescence ratio: 0.997

TTTCACTTTA
switch fluorescence ratio: 0.985

ACCCGTGCGT
switch fluorescence ratio: 1

GGGTTCCGGT
switch fluorescence ratio: 0.99

GCAGGGTTTT
switch fluorescence ratio: 0.986

TGTTATTCA
switch fluorescence ratio: 1.02

CCGAGATGCT
switch fluorescence ratio: 1.96

TCTTACTTTT
switch fluorescence ratio: 1.01

CGATGAAGTC
switch fluorescence ratio: 1.01

GATGCACAGC
switch fluorescence ratio: 1.08

ACCAATCGTT
switch fluorescence ratio: 1.01

ATTCCTACCC
switch fluorescence ratio: 1.16

TTGACCCCAG
switch fluorescence ratio: 0.979

CGCAGCCCGG
switch fluorescence ratio: 1.35

GCTCACTGAC
switch fluorescence ratio: 1.77

CCTAACCTT
switch fluorescence ratio: 1.66

CCGGGCCGGA
switch fluorescence ratio: 0.98

TTCGTTAACT
switch fluorescence ratio: 1.02

TATTGCCTAT
switch fluorescence ratio: 1.02

GTTTGATAA
switch fluorescence ratio: 1.02

CAATGCGG
switch fluorescence ratio: 1.02

ATTTCTTTGA
switch fluorescence ratio: 0.973

ATGGATACAT
switch fluorescence ratio: 1.02

AAAAAGCCTA
switch fluorescence ratio: 1.01

AGCCGGGTA
switch fluorescence ratio: 1.01

GGGACAATGG
switch fluorescence ratio: 1.03

GTGTTGCAGC
switch fluorescence ratio: 1.01

GGGGTTTAT
switch fluorescence ratio: 0.976

AAAGCGGTAG
switch fluorescence ratio: 1.01

AAGTCCCGCC
switch fluorescence ratio: 1.01

TCACGGTGAC
switch fluorescence ratio: 1.17

AACCTTGAGG
switch fluorescence ratio: 0.986

TTGTGGATGA
switch fluorescence ratio: 1.02

GTTAATCTCG
switch fluorescence ratio: 0.978

CTCACGGTAA
switch fluorescence ratio: 1.3

GAAAACATA
switch fluorescence ratio: 1.03

TTTTAACGTC
switch fluorescence ratio: 1.02

CATACCGCTG
switch fluorescence ratio: 1.4

AAGCGCAGAA
switch fluorescence ratio: 1.02

ATTAAGGGG
switch fluorescence ratio: 1.06

GATGTGCTGC
switch fluorescence ratio: 1.01

GGTATAACTC
switch fluorescence ratio: 0.994

TTGCTCCAGT
switch fluorescence ratio: 1.01

TATCTTGTAC
switch fluorescence ratio: 1.03

CAATTAGCTA
switch fluorescence ratio: 1.02

CGGGGTTTAT
switch fluorescence ratio: 0.981

AGCTAATATA
switch fluorescence ratio: 1.06

GGGACACTAG
switch fluorescence ratio: 1.01

GTGGCGTGGG
switch fluorescence ratio: 1.02

TGTCGCGGTG
switch fluorescence ratio: 1.05

TATAGATAGT
switch fluorescence ratio: 1.02

CGTTAGAGGA
switch fluorescence ratio: 0.991

AGTTCCATGA
switch fluorescence ratio: 0.986

ATGGCGTCTA
switch fluorescence ratio: 1.03

CTGGACGTT
switch fluorescence ratio: 0.983

AGGGGGACGC
switch fluorescence ratio: 1.01

ACTTACGGG
switch fluorescence ratio: 1.44

TATGGTTCTC
switch fluorescence ratio: 1

GATAATTCGT
switch fluorescence ratio: 1.05

TGCTCGTACG
switch fluorescence ratio: 1.01

TTGGCTATC
switch fluorescence ratio: 1.05

CGCGCGGGCC
switch fluorescence ratio: 0.978

GCAACTCCA
switch fluorescence ratio: 1.41

GGCGCGTCTT
switch fluorescence ratio: 1.02

TAGGTTAGGT
switch fluorescence ratio: 1.06

CTGTAGGTAT
switch fluorescence ratio: 1.06

GCTAGGAGGT
switch fluorescence ratio: 0.998

CCGTGTAG
switch fluorescence ratio: 1.05

GAGGGATCCG
switch fluorescence ratio: 0.962

TAATTATTGT
switch fluorescence ratio: 1.03

GAGTTTTAGT
switch fluorescence ratio: 1.04

GAAATCAGTT
switch fluorescence ratio: 0.95

CCATGGATTG
switch fluorescence ratio: 1.04

CATTACAGGA
switch fluorescence ratio: 1.09

TGGCGACCGG
switch fluorescence ratio: 1

GTAAATTGAT
switch fluorescence ratio: 1.01

CAACTAGTAA
switch fluorescence ratio: 1.03

CCACTCGTTA
switch fluorescence ratio: 1.08

GAGTACGGAG
switch fluorescence ratio: 0.999

ACTTTCAGAT
switch fluorescence ratio: 1.04

CCTACTGTGG
switch fluorescence ratio: 1.02

TGGGAGGTAT
switch fluorescence ratio: 1.01

TATACTTGCT
switch fluorescence ratio: 1.03

TAGGCTGACG
switch fluorescence ratio: 0.924

CGTGTGGGGC
switch fluorescence ratio: 1.05

AGTGGATGCG
switch fluorescence ratio: 1.04

TTATAAACAG
switch fluorescence ratio: 1.02

ACGGCTTGTT
switch fluorescence ratio: 0.983

AACAGTCGGG
switch fluorescence ratio: 0.995

CGTTGCTGTA
switch fluorescence ratio: 0.967

ATCACGGATG
switch fluorescence ratio: 1.01

GATTGCGGGG
switch fluorescence ratio: 0.977

TTTAGTTATG
switch fluorescence ratio: 0.993

TTCGGATACT
switch fluorescence ratio: 0.98

TCGTCAGGCT
switch fluorescence ratio: 1.07

ATCTTATTGG
switch fluorescence ratio: 1.04

TTTTAAGCCT
switch fluorescence ratio: 1.05

TACAATAGCT
switch fluorescence ratio: 1.06

GTTTAGATAC
switch fluorescence ratio: 2.35

ACGGAACAC
switch fluorescence ratio: 1.75

AAAGGGATTG
switch fluorescence ratio: 0.993

AGGTACTCGT
switch fluorescence ratio: 1

GCGCCACCCC
switch fluorescence ratio: 1.01

TGCCTTCAGC
switch fluorescence ratio: 0.993

TGAGCGCTCG
switch fluorescence ratio: 1

ATGTGAAGTA
switch fluorescence ratio: 1.04

TTATCATCAG
switch fluorescence ratio: 1.02

CGCAAAAACA
switch fluorescence ratio: 1.07

GACACGGTTG
switch fluorescence ratio: 1.01

GATGCGCATT
switch fluorescence ratio: 1.02

CTGTGAAACT
switch fluorescence ratio: 1.02

TGCTGCCGCA
switch fluorescence ratio: 1.14

TTGGTTTGAT
switch fluorescence ratio: 0.992

AACTTGTCTC
switch fluorescence ratio: 0.985

AGATGTAGCC
switch fluorescence ratio: 0.982

ATTAAATTTG
switch fluorescence ratio: 0.991

TATATACTTC
switch fluorescence ratio: 1.08

GTCATGTACT
switch fluorescence ratio: 1.05

CGCCTTGCCC
switch fluorescence ratio: 0.989

GTTGGAAATG
switch fluorescence ratio: 1.03

AGCCGAGTGG
switch fluorescence ratio: 0.96

CGCAGGATAG
switch fluorescence ratio: 1.34

GCTAAATGTG
switch fluorescence ratio: 0.975

AGTAGCAAGG
switch fluorescence ratio: 1.18

CCAGCGACAT
switch fluorescence ratio: 1.27

GATTATTGCG
switch fluorescence ratio: 0.994

GAGGAAATAG
switch fluorescence ratio: 1.33

AATAACCGGT
switch fluorescence ratio: 1.02

GCTGAACGGG
switch fluorescence ratio: 0.984

AGGCTAAGTG
switch fluorescence ratio: 0.976

TGCAACTAGG
switch fluorescence ratio: 0.986

GGGTTGCCCA
switch fluorescence ratio: 0.947

ATAAGGTCTG
switch fluorescence ratio: 0.998

GACAAATGGA
switch fluorescence ratio: 1.03

TTTGGAGT
switch fluorescence ratio: 1.02

GACGTAGACT
switch fluorescence ratio: 1.19

TGCCGGAGAA
switch fluorescence ratio: 1.01

GCGAATTTTT
switch fluorescence ratio: 0.979

GGGCGACTGG
switch fluorescence ratio: 0.948

AGGGCGGGAC
switch fluorescence ratio: 1.01

TTAGCGAACC
switch fluorescence ratio: 1.07

ATGCTGTGAC
switch fluorescence ratio: 1

From the supplement of paper PMC10126150
